These results are taken from the supplement of paper PMC9446081.

Molecules are shown by their SMILES. In all, about 39,000 compounds went through this assay and about 220 (0.56%) showed activity. Some of the results follow.
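Also: static incubation at 37 °C against the wild-type strain, values averaged over two biological replicates.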

The test has as its system Escherichia coli K-12 BW25113. Description: relative growth (OD600 normalised to plate interquartile mean) (fraction); higher = less growth inhibition, active = 0.2 or less. The conditions noted are these: 50 µM; LB; incubation time: overnight (16-24 h).
Take `O=C(C[C@@H]1CC=CC[C@H](NC(=O)OCC2c3ccccc3-c3ccccc32)C(=O)OC[C@@H](Cc2c[nH]c3ccccc23)NC1=O)N[C@@H](CO)Cc1ccccc1`: the relative growth was inactive: 0.992.

For the molecule `C[C@@H]1CCCCO[C@@H](CN(C)Cc2ccccc2)[C@H](C)CN([C@@H](C)CO)C(=O)c2cc(NC(=O)Nc3ccc(C(F)(F)F)cc3)ccc2O1`, the relative growth is inactive: 1.04.

Take `COc1ccc(NC(=O)Nc2ccc3c(c2)C(=O)N([C@@H](C)CO)C[C@H](C)[C@H](CN(C)Cc2ccc(Oc4ccccc4)cc2)O3)cc1`: the relative growth was inactive: 0.989.

For `C[C@@H]1CCCCO[C@@H](CN(C)C(=O)Nc2cccc3ccccc23)[C@H](C)CN([C@H](C)CO)C(=O)c2cc(NS(=O)(=O)c3ccccc3)ccc2O1`, the relative growth was inactive: 1.01.

On to `C[C@@H]1CN([C@@H](C)CO)S(=O)(=O)c2ccc(C#CC3(O)CCCC3)cc2O[C@H]1CN(C)C(=O)c1cccnc1`, for which the relative growth was inactive: 1.

`Cc1ccc(NC(=O)c2ccc(CN3CC[C@H](N(C)C)C3)c(C(F)(F)F)c2)cc1Nc1nccc(-c2cncnc2)n1`: the relative growth is inactive: 0.999.

Turning to `COc1ccc(NC(=O)Nc2ccc3c(c2)C(=O)N([C@H](C)CO)C[C@H](C)[C@H](CN(C)C(=O)Nc2ccc(F)cc2)OCCCC[C@H](C)O3)cc1`, the relative growth is inactive: 1.02.

For the molecule `C[C@H](CO)N1C[C@H](C)[C@H](CN(C)Cc2ccc(Oc3ccccc3)cc2)Oc2c(NC(=O)Nc3cccc4ccccc34)cccc2C1=O`, the relative growth was inactive: 1.01.

Turning to `COCC(=O)Nc1ccc2c(c1)C(=O)N(C)[C@@H]1CC[C@H](CC(=O)N3CCc4ccccc4C3)O[C@@H]1CO2`, the relative growth was inactive: 1.02.

As to `COc1ccc(/C=C/CN2CCC(C(=O)N[C@@H](c3ccc(-c4ccccc4)cc3)c3cnccn3)CC2)cc1`, the relative growth was inactive: 0.92.

In the case of `COc1ccc(NC(=O)N(C)C[C@@H]2Oc3ncc(C#CCN(C)C)cc3C(=O)N([C@@H](C)CO)C[C@H]2C)cc1`, the relative growth was inactive: 0.981.

For the molecule `C[C@H](CO)N1C[C@H](C)[C@@H](CN(C)Cc2ccncc2)Oc2ccc(NS(=O)(=O)c3cccs3)cc2CC1=O`, the relative growth is inactive: 1.05.

With `O[C@H]1[C@H](O)[C@@H](O)[C@H]2O[C@@H]2[C@@H]1O`, the relative growth was inactive: 0.997.

Regarding `Nc1nc(=O)c2[nH]c(=O)cnc2[nH]1`, the relative growth is inactive: 0.992.

For `CC(C)NC(=O)N(C)C[C@@H]1Oc2ccc(NC(=O)C3CCCCC3)cc2C(=O)N([C@@H](C)CO)C[C@H]1C`, the relative growth was inactive: 1.01.

Take `C[C@@H]1CCCCO[C@H](CN(C)Cc2ccncc2)[C@H](C)CN([C@@H](C)CO)C(=O)c2cc(NS(C)(=O)=O)ccc2O1`: the relative growth was inactive: 0.971.

Turning to `NCCC[C@H](NC(=O)[C@@H]1CCCN1C(=O)[C@@H]1CSSC[C@H](N)C(=O)N[C@@H](Cc2ccc(O)cc2)C(=O)N[C@@H](Cc2ccccc2)C(=O)N[C@@H](CCC(N)=O)C(=O)N[C@@H](CC(N)=O)C(=O)N1)C(=O)NCC(N)=O`, the relative growth was inactive: 0.98.

For the molecule `CC=CCC(C)C(O)C1C(=O)NC(CC)C(=O)N(C)CC(=O)N(C)C(CC(C)C)C(=O)NC(C(C)C)C(=O)N(C)C(CC(C)C)C(=O)NC(C)C(=O)NC(C)C(=O)N(C)C(CC(C)C)C(=O)N(C)C(CC(C)C)C(=O)N(C)C(C(C)C)C(=O)N1C` (stereo not given), the relative growth was inactive: 1.05.

In the case of `C[C@@H]1CN([C@H](C)CO)C(=O)c2cccc(NC(=O)CCCCCC(=O)Nc3ccccc3N)c2O[C@@H]1CN(C)CC1CCCCC1`, the relative growth is inactive: 1.01.

Regarding `CC(C)NC(=O)N[C@H]1C=C[C@@H](CC(=O)O)O[C@@H]1CO`, the relative growth was inactive: 1.01.

For the molecule `Cc1noc(C)c1S(=O)(=O)Nc1cccc2c1O[C@@H](CN(C)Cc1ccc(-c3ccccc3)cc1)[C@@H](C)CN([C@H](C)CO)C2=O`, the relative growth is inactive: 1.01.

For the molecule `C[C@@H]1CN([C@H](C)CO)C(=O)Cc2cc(NC(=O)Cc3ccccc3)ccc2O[C@@H]1CN(C)S(C)(=O)=O`, the relative growth was inactive: 0.993.

Consider `O=C(C[C@@H]1C[C@H]2c3cc(NC(=O)C4CCOCC4)ccc3O[C@H]2[C@@H](CO)O1)NCc1ccc(Cl)cc1`, for which the relative growth is inactive: 1.03.

On to `Cc1cccc(S(=O)(=O)N2C[C@@H](O)COC[C@@H]3O[C@@H](CC(=O)NCc4ccc5c(c4)OCO5)CC[C@H]32)c1`, for which the relative growth was inactive: 0.996.

Turning to `CN1CCN(C(=O)C[C@H]2CC[C@@H]3[C@@H](COc4ccc(NC(=O)c5cscn5)cc4C(=O)N3C)O2)CC1`, the relative growth is inactive: 1.02.

As for `COc1ccc(NC(=O)Nc2ccc3c(c2)CC(=O)N([C@@H](C)CO)C[C@H](C)[C@@H](CN(C)C(=O)Nc2cccc4ccccc24)O3)cc1`, the relative growth was inactive: 1.05.

As to `C[C@H]1CN([C@@H](C)CO)C(=O)Cc2cc(NC(=O)c3ccncc3)ccc2O[C@H]1CN(C)C(=O)Nc1ccc2c(c1)OCO2`, the relative growth is inactive: 0.917.

Turning to `COCC(=O)N1C[C@@H](C)[C@H](OC)CN(C)C(=O)c2cc(NC(=O)Nc3ccccc3)ccc2OC[C@@H]1C`, the relative growth is inactive: 0.995.

Turning to `COc1ccccc1S(=O)(=O)N[C@@H]1C=C[C@H](CC(=O)N2CCOCC2)O[C@@H]1CO`, the relative growth is inactive: 0.97.

On to `NC[C@H]1CC[C@H](C(=O)N2CCC(c3ccncc3)CC2)CC1`, for which the relative growth was inactive: 1.03.

Consider `C[C@@H]1CN([C@@H](C)CO)C(=O)c2cc(NS(=O)(=O)c3cn(C)cn3)ccc2O[C@@H]1CN(C)C(=O)Nc1ccc(F)cc1`, for which the relative growth is inactive: 0.906.

As for `C[C@@H](NC(=O)C[C@H]1CC[C@@H](NC(=O)CN2CCOCC2)[C@@H](CO)O1)c1ccccc1`, the relative growth is inactive: 1.02.

For the molecule `CO[C@H]1CN(C)C(=O)c2ccc(NS(C)(=O)=O)cc2OC[C@H](C)N(C(=O)C2CCOCC2)C[C@@H]1C`, the relative growth was inactive: 0.979.

For `C[C@@H]1CN([C@@H](C)CO)S(=O)(=O)c2ccc(C3=CCCC3)cc2O[C@H]1CN(C)C(=O)Cc1ccncc1`, the relative growth is inactive: 1.01.

For `O=C(N[C@@H]1C=C[C@@H](CC(=O)N2CCOCC2)O[C@H]1CO)c1ccc2c(c1)OCO2`, the relative growth was inactive: 0.952.

With `O=C(C[C@@H]1CC[C@@H]2[C@H](COC[C@@H](O)CN2Cc2ccccc2F)O1)N[C@@H]1CCN(Cc2ccccc2)C1`, the relative growth was inactive: 1.01.

Regarding `Cc1cc2cccc(C(=O)N[C@H]3CC[C@@H](N)CC3)c2o1`, the relative growth is inactive: 0.989.

For `CC(C)NC(=O)N(C)C[C@@H]1OCCCC[C@@H](C)Oc2ccc(NS(C)(=O)=O)cc2C(=O)N([C@@H](C)CO)C[C@H]1C`, the relative growth is inactive: 1.02.

For the molecule `CCO[C@H]1[C@H]2CC[C@@H]1N(C(=O)N(C)C)CCO2`, the relative growth is inactive: 1.03.

Take `CN1C(=O)c2cc(NS(C)(=O)=O)ccc2OC[C@H]2O[C@H](CC(=O)N3CCOCC3)CC[C@H]21`: the relative growth was inactive: 1.02.

`C[C@H](CO)N1C[C@H](C)[C@H](CN(C)C(=O)Nc2ccccc2)OCCCC[C@H](C)Oc2ccc(NC(=O)Nc3ccc(F)cc3)cc2C1=O`: the relative growth was inactive: 1.07.

Regarding `Cc1noc(C)c1S(=O)(=O)Nc1ccc2c(c1)C(=O)N([C@H](C)CO)C[C@H](C)[C@@H](CN(C)CC1CC1)O2`, the relative growth was inactive: 1.01.

Regarding `CC(C)CCCC(C)C1CCC2C3CC(O)C4(O)CC(O)CCC4(C)C3CCC12C` (stereo not drawn) ["CHOLESTAN-3beta,5alpha,6beta-TRIOL"], the relative growth was inactive: 1.04.

For `CCS(=O)(=O)Nc1ccc2c(c1)C(=O)N(C)C[C@@H](OC)[C@@H](C)CN(Cc1nccs1)[C@@H](C)CO2`, the relative growth is inactive: 0.984.

With `CNCc1nc2ccsc2c(=O)[nH]1`, the relative growth was inactive: 0.971.

Consider `COc1ccc(S(=O)(=O)Nc2ccc3c(c2)C(=O)N([C@@H](C)CO)C[C@H](C)[C@@H](CN(C)S(C)(=O)=O)O3)cc1`, for which the relative growth is inactive: 0.979.

As for `O=C(Nc1ccc2c(c1)[C@@H]1C[C@H](CC(=O)N3CCc4ccccc4C3)O[C@H](CO)[C@@H]1O2)C1CCOCC1`, the relative growth is inactive: 0.983.

As to `Cc1cccc([C@@H](N)c2nccn2C)c1`, the relative growth is inactive: 1.02.

For the molecule `C[C@@H]1CN([C@H](C)CO)C(=O)Cc2cc(NC(=O)CCCCCC(=O)Nc3ccccc3N)ccc2O[C@H]1CN(C)C(=O)Nc1ccccc1`, the relative growth was inactive: 0.991.

Turning to `C[C@H](CO)N1C[C@H](C)[C@H](CN(C)CC2CCOCC2)Oc2cc(-c3cccnc3)ccc2S1(=O)=O`, the relative growth is inactive: 1.

As to `C[C@@H]1CN([C@H](C)CO)C(=O)Cc2cc(NC(=O)c3ccncc3)ccc2O[C@H]1CN(C)S(C)(=O)=O`, the relative growth was inactive: 1.01.

`C[C@H](CO)N1C[C@H](C)[C@H](CN(C)C(=O)c2ccccc2)OCCCC[C@H](C)Oc2ccc(NC(=O)Nc3ccc(C(F)(F)F)cc3)cc2C1=O`: the relative growth was inactive: 1.03.

Take `NCc1ccc(S(=O)(=O)N2CCOCC2)cc1`: the relative growth was inactive: 0.968.

On to `C[C@@H]1CCCCO[C@H](CN(C)C(=O)C2CCCCC2)[C@@H](C)CN([C@H](C)CO)C(=O)c2cc(NS(=O)(=O)c3cccs3)ccc2O1`, for which the relative growth was inactive: 1.03.

`O=C(C[C@@H]1CC[C@@H](NC(=O)Cc2ccccn2)[C@@H](CO)O1)NCCc1ccncc1`: the relative growth was inactive: 0.981.

`COc1ccc(NC(=O)Nc2ccc3c(c2)C(=O)N([C@H](C)CO)C[C@@H](C)[C@@H](CN(C)Cc2ccc(Cl)c(Cl)c2)OCCCC[C@H](C)O3)cc1`: the relative growth is inactive: 0.873.

Consider `Cc1ccc(S(=O)(=O)N(C)C[C@@H]2OCCCC[C@H](C)Oc3ccc(NS(C)(=O)=O)cc3C(=O)N([C@@H](C)CO)C[C@H]2C)cc1`, for which the relative growth is inactive: 0.993.

For the molecule `Cc1cccc(NC(=O)CN2C(=O)CNC2=O)c1`, the relative growth is inactive: 1.

As to `Cc1cccc(S(=O)(=O)N2C[C@@H](O)COC[C@H]3O[C@H](CC(=O)N4CCN(C)CC4)CC[C@@H]32)c1`, the relative growth was inactive: 1.01.

Consider `C[C@@H]1CCCCO[C@H](CN(C)Cc2ccc(C(F)(F)F)cc2)[C@@H](C)CN([C@@H](C)CO)C(=O)c2cc(NS(C)(=O)=O)ccc2O1`, for which the relative growth was inactive: 0.965.
